Experimental data reported in PubChem BioAssay AID624296 (National Center for Advancing Translational Sciences (NCATS), 2012).
Hit rate of the full screen: of about 350,000 compounds, about 9,900 (2.8%) were called active. The inconclusive results got no clear call from the source; some entries with a clear call stand among them for comparison. The call rests on the fitted dose curve; in most records, active means well fitted activation curve with a large enough effect; inconclusive means small, poorly fitted or top-dose-only effect; inactive means no such curve, though single readings can be large or run the other way. No potency is given beside an inconclusive call; the fits are too rough.

Assay: A quantitative high throughput screen for small molecules that induce DNA re-replication in MCF 10a normal breast cells. Further: nearly all actives have a fitted effect of over 50% in size. On activity, positive = re-replication: % of control where 0% means no effect.
Details: MCF 10A DNA re-replication, Hoechst nuclear intensity, 48 h; activity, positive = re-replication: at 46.1 µM (top of the series)
Potency means the concentration at half of the fitted maximal effect; tags describe the fitted curve by direction and shape.

Structure (SMILES) | Potency | activity, positive = re-replication
CC1CCCCN1C(=S)NC(=O)c1cc(Br)ccc1Cl (stereo not given) | inconclusive [activator, single point] | 
CCOc1ncccc1C(=O)NCc1ccc(OC)c(OC)c1 |  | inactive: 0.517%
CC(C)CC(NC(=O)C1CCC(C)CC1)C(=O)Nc1cccnc1 (stereo not given) |  | inactive: 1.11%
COC(=O)c1cc(CSc2nnc(-c3ccccc3)c(-c3ccccc3)n2)oc1C | inconclusive [activator, partial curve, poor fit] | 
Cc1nc(NCCc2ccc(F)cc2)c2nnn(Cc3ccccc3)c2n1 | inconclusive [activator, single point] | 
CCOC(=O)C(=Cc1c[nH]c2ccc(S(=O)(=O)N(C)C)cc12)C(=O)OCC | inconclusive [activator, single point] | 
COC(=O)CSc1nnc(C)n1-c1ccc(C)cc1 |  | inactive: -22.8%
Cc1cccc(-c2nnc(SCC#N)n2-c2cccc(Cl)c2)c1 |  | inactive: 16.2%
O=C(Nc1nc(=O)n(C(=O)C2CC2)s1)c1ccccc1 | inconclusive [activator, single point] | 
O=C(N/N=C/C(Br)=C/c1ccccc1)c1cccs1 | inconclusive [activator, single point] | 
COC(=O)c1c(-c2ccccc2Cl)noc1/C=C/N(C)C | inconclusive [activator, partial curve, poor fit] | 
COC(=O)CC1COc2ccccc2N1S(=O)(=O)c1ccc(Br)cc1 (stereo not given) |  | inactive: 28.3%
O=C(CCS(=O)(=O)Cc1cccc(Cl)c1)NCCc1ccccc1 | inconclusive [activator, single point] | 
c1ccc(Cc2ccc(OCCN3CCOCC3)cc2)cc1 | inconclusive [activator, full curve] | 
Cc1ccc(Cl)cc1NC(=O)COC(=O)CCN1C(=O)C2CC=CCC2C1=O (stereo not given) | inconclusive [activator, single point] | 
Cc1cc(NC(=O)c2cc3n(n2)C(C(F)(F)F)CC(c2ccco2)N3)no1 (stereo not given) | inconclusive [activator, partial curve, poor fit] | 
O=C(NCc1cccc(C(F)(F)F)c1)C1CC(c2ccc(C(F)(F)F)cc2)=NO1 (stereo not given) | inconclusive [activator, single point] | 
O=C(NCC(=O)N1CCN(c2ccccc2O)CC1)c1ccco1 |  | inactive: 10%

Structure (SMILES) | Potency | activity, positive = re-replication
CCCOc1ccc(C(=O)CCC(=O)Nc2ccc(N3CCN(C)CC3)cc2)cc1 | inconclusive [activator, full curve, poor fit] | 
O=C1C=CC(=O)N1c1ccc(Nc2ccccc2)cc1 | inconclusive [activator, single point] | 
Nc1cc([N+](=O)[O-])ccc1OCc1ccccc1 |  | inactive: 19.1%
CCCCCCNC(=O)Nc1ccccc1 |  | inactive: -3.89%
C(#CC1CCCCC1)c1ccc2c(c1)COc1c3ccccc3nn1-2 | inconclusive [activator, full curve, poor fit] | 
Cc1ccc(C(=O)NC2CCN(S(=O)(=O)c3ccccc3F)CC2)cc1 | inconclusive [activator, single point] | 
Cc1ccc2nc(N3CCC(C(=O)O)CC3)nc(-c3ccccc3)c2c1 | active: 20.6 µM | 
C[N+](C)(C)CC(=O)N/N=C/c1c2ccccc2cc2ccccc12 | active: 18.4 µM | 
Oc1ccc(Nc2nc(-c3cccs3)cs2)cc1 | inconclusive [activator, single point] | 
Cc1cc(-c2ccccc2)nc(N/N=C/c2ccc(O)cc2O)n1 |  | inactive: 7.79%
Cn1ncc2c(NNC(=O)c3ccc(Cl)c(Cl)c3)ncnc21 | inconclusive [activator, partial curve, poor fit] | 
O=C(Cn1cccc1C(=O)c1ccccc1)NCCCN1CCOCC1 |  | inactive: -1.74%
Clc1cccc(-c2ccc(-c3nc4ccccn4c3NCc3ccccc3)cc2)c1 | active: 16.4 µM | 
N#Cc1nc(Cc2ccccc2)oc1NCCc1ccccc1 | inconclusive [activator, partial curve, poor fit] | 
COc1ccc(CN2C(=O)c3ccccc3C(/C=N/OCc3ccc(Cl)cc3)C2=O)cc1 (stereo not given) |  | inactive: 19.2%
CCN(C[C@H]1N[C@@](Cc2ccccc2)(C(=O)OC)[C@H]2C(=O)N(Cc3ccccc3)C(=O)[C@@H]12)C(=O)c1ccccc1 |  | inactive: -3.95%
Cc1ccc(-c2n[nH]c(=S)n2/N=C/c2c(C)nn(-c3ccccc3)c2C)cc1 | inconclusive [activator, single point] | 
